From PubChem BioAssay AID1159614 (National Center for Advancing Translational Sciences (NCATS), 2016)
Hit rate of the full screen: of about 45,000 compounds, about 65 (0.1%) were called active. Calls follow the shape of the dose curve; as a rule, active = well fitted activation curve with a large enough effect; inconclusive = small, poorly fitted or top-dose-only effect; inactive = no such curve, though single readings can be large or run the other way. The list shows a part of the results.

biological target: Galactocerebrosidase (Homo sapiens) (UniProt P54803); test: A Novel Cell-Based Assay to Identify Small Molecules for B -Galactocerebrosidase; details: 145M-Twi-hGALC-G270D cells (Twitcher mouse brain line with human GALC G270D), HMU-beta-Gal fluorescence, 48 h; series mostly up to 57.5 µM; activation: at the top concentration; also: 0% is about no effect; nearly all actives have a fitted effect of over 65% in size
In short: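 Mutant human GALC (G270D), stably expressed in a Twitcher mouse brain cell line lacking endogenous GALC, is measured in live-treated cells via 6-hexadecanoylamino-4-methylumbelliferyl-β-galactoside hydrolysis (0.1 mM final, pH 5.2) with fluorescent detection.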

Sequence of UniProt P54803 (P54803 whole entry, looked up): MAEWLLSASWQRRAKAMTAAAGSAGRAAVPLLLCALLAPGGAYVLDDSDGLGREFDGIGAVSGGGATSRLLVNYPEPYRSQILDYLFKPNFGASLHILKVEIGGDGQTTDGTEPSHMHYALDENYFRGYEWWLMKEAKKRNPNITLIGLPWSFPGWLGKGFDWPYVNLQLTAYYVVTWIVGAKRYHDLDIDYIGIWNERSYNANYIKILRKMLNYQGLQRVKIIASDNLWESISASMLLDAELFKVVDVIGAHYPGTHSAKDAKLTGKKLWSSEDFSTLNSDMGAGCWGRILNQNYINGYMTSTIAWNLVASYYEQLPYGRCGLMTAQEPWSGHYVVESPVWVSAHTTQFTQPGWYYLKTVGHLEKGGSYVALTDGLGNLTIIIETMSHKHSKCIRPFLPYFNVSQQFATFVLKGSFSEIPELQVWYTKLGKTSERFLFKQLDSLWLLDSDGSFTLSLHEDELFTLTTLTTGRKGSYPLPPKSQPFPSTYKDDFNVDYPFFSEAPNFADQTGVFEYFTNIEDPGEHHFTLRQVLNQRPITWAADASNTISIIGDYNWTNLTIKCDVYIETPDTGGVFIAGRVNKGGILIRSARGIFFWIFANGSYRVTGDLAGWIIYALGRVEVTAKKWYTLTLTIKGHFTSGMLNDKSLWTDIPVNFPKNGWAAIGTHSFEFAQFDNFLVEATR

Structure (SMILES) | activation
CCOC(=O)c1cnc2c(C)c(Cl)ccc2c1NCCc1ccc(OC)c(OC)c1 | inactive: -5.63%
COc1ccc(-c2noc(N3CCC(C(=O)N4CCN(c5ccccc5OC)CC4)CC3)n2)cc1 | inactive: -12.8%
Cc1cccc2c1-c1sc(C(=O)N3CCN(c4ccccc4)CC3)cc1CO2 | inactive: -13.8%
CCCCNS(=O)(=O)c1ccc2nc(-c3cccnc3)cc(C(=O)NCCCOC(C)C)c2c1 | inactive: -3.6%
Cc1cccc(NC(=O)Nc2ccc(F)cc2)n1 | inactive: -7.34%
CCCCN(C)CCNC(=O)c1ccc(Cn2c(=O)[nH]c3cc(OC)c(OC)cc3c2=O)cc1 | inactive: -15%
COc1ccccc1CNC(=O)c1cccc(N2CCCS2(=O)=O)c1 | inactive: 2.1%
Cc1ccc(N(CC(=O)NCCc2ccccc2C)S(=O)(=O)N(C)C)cc1 | inactive: -14.4%
COc1ccccc1CNC(=O)Cn1c(=O)oc2cc(S(=O)(=O)N3CCCC3)ccc21 | inactive: -15.9%
CCOC(=O)c1ccc(NC(=O)C2CC(=O)NC(=Nc3ccc(C)c(C)c3)S2)cc1 (stereo not drawn) | inactive: -24.5%
CCc1nc2nc(C)cc(Nc3cc(Cl)ccc3C)n2n1 | inactive: -13.9%
CCc1ccc(CNC(=O)c2ccc3c(Cl)c4c(nc3c2)CCCC4)cc1 | inactive: -46.3%
COc1ccc(Br)cc1C(=O)Nc1cccc2ccc(C)nc12 | inactive: -28.9%
COc1ccc(-c2noc(N(c3ccc(F)c(Cl)c3)c3nc(-c4ccc(OC)c(OC)c4)no3)n2)cc1OC | inactive: 0.994%
COc1cc(-c2nc(S(=O)(=O)c3ccc(Br)cc3)c(N3CCOCC3)o2)cc(OC)c1OC | inactive: -0.0144%
CC(=O)Nc1ccc(NC(=O)C2CCCN(S(=O)(=O)c3ccc4c(c3)CCCC(=O)N4)C2)cc1 (stereo not drawn) | inactive: -2.39%
CCOC(=O)c1cnn(-c2ccc(C(=O)Nc3ccc(OC(F)(F)F)cc3)cc2)c1N | inactive: -5.49%
Cc1cc(N2CCN(c3cccc(C)c3C)CC2)n2cnnc2n1 | inactive: -19.4%
CCN(CC)CCSc1nnc2c3cc(F)ccc3n(CC)c2n1 | inactive: 3.25%
COc1cccc(C(=O)n2nc(-c3cccnc3)nc2NCc2ccc(F)cc2)c1 | inactive: -12.6%
COC(=O)c1ccc2c(=O)n(CCCCCC(=O)N3CCN(c4ccc(Cl)cc4)CC3)c(=O)[nH]c2c1 | inactive: -14.4%

Structure (SMILES) | activation
Cc1ccc(CCNC(=O)CCn2nc(-c3ccc(C)cc3)ccc2=O)cc1 | inactive: -12.7%
Cc1c(Cl)cccc1NC(=O)Nc1ccc2snnc2c1 | inactive: -11.2%
Oc1c(C(c2ccccc2F)N2CCCC2)sc2nc(-c3ccco3)nn12 (stereo not drawn) | inactive: 3.13%
O=C(NCCc1ccccc1)c1ccc(CS(=O)(=O)c2ccc(Cl)cc2)o1 | inactive: -16%
CNCCC(Oc1ccccc1OC)c1ccccc1 (stereo not drawn) | inactive: -4.02%
COc1ccccc1CNC(=O)Cn1c(=O)nc(-c2ccccc2)c2ccccc21 | inactive: -6.24%
CCCSc1nnc2c(n1)OC(c1cccs1)Nc1ccc(Br)cc1-2 (stereo not drawn) | inactive: -14.2%
Cc1cccc(S(=O)(=O)c2cn(C)c3cc(N4CCC(C)CC4)c(F)cc3c2=O)c1 | inactive: -8.65%
CC(=O)Nc1ccc(NC(=O)c2cc(-c3ccc4c(c3)OCCO4)on2)cc1 | inactive: 13%
CCC(=O)N1c2ccc(S(=O)(=O)CCC(=O)NCc3cccc(OC)c3)cc2CC1C (stereo not drawn) | inactive: -1.56%
CCCOc1ccccc1C1C(C(=O)Nc2ccccc2)=C(C)Nc2nnnn21 (stereo not drawn) | inactive: -16.4%
CCCC1=Nc2cc(C(=O)NCCOC)ccc2Sc2ccccc21 | inactive: -21.6%
CCc1ccc(N(CC)C(=O)Cn2cnc3sc(C)c(S(=O)(=O)N4CCN(c5ncccn5)CC4)c3c2=O)cc1 | inactive: -7.5%
Cc1ccc2onc(CC(=O)N3CCN(c4ccccc4)CC3)c2c1 | inactive: -9.48%
CCc1ccc(OCC(=O)Nc2ccc3c(c2)c2ccccc2n3CC)c(Br)c1 | inactive: -4.97%
N#C/C(=C\c1cc(Br)c(O)c(Br)c1)c1nc2ccccc2c(=O)[nH]1 | inactive: -6.73%
CCOc1ccc(NC(=O)C(C)n2c(=O)cc(C)c3c(C)nn(-c4ccccc4)c32)cc1 (stereo not drawn) | inactive: -3.52%
COc1ccccc1O | inactive: -10.4% [at 114 µM]
Cc1cccc(CSc2ccc(-c3cccs3)nn2)c1 | inactive: -7.64%
O=C(NCc1ccccc1Cl)c1nnc(Cc2ccc(Cl)cc2)o1 | inactive: -5.97%
COc1ccc(-c2nc(SCC(=O)NCCc3ccccc3)n[nH]2)cc1 | inactive: -2.72%

Structure (SMILES) | activation
COc1ccc(-c2noc(CSc3nnc(C)n3-c3ccc(C)c(C)c3)n2)c(OC)c1 | inactive: -20.5%
COc1ccc(CC(=O)NC2CC(=O)N(c3ccc(C)c(C)c3)C2)cc1OC (stereo not drawn) | inactive: -4.76%
O=C(Cn1c(=O)oc2cc(S(=O)(=O)N3CCCCC3)ccc21)NCc1ccc(F)cc1 | inactive: -41.4%
CC1CCN(c2nc3ccc(C(=O)NCCc4ccc(S(N)(=O)=O)cc4)cc3s2)CC1 | inactive: -13.4%
CCc1ccc(NC(=O)CSc2ncc(S(=O)(=O)c3cc(C)ccc3C)c(=O)[nH]2)cc1 | inactive: -1.6%
O=C(O)Cc1cn(-c2ccccc2)nc1-c1ccc(Cl)cc1 | inactive: -10.8%
COC(=O)c1ccccc1NC(=O)C1CCCN(c2nnc(C)c3c(C)n(-c4ccccc4)nc23)C1 (stereo not drawn) | inactive: -14.3%
CCOC(=O)C(Cc1ccccc1)NC(=O)CCc1c(C)nc2c(c(C)nn2-c2ccc(C)c(C)c2)c1C (stereo not drawn) | inactive: -30.3%
O=NN(CCCl)C(=O)NC1CCCCC1 | inactive: -14.8%
COC(=O)c1c(NC(=O)c2ccc(S(=O)(=O)N(C)C3CCCCC3)cc2)sc2c1CCN(C)C2 | inactive: -24.1%
O=C(CN1C(=O)CCc2cc(S(=O)(=O)N3CCCCC3)ccc21)NCc1ccc(Cl)cc1 | inactive: -3.3%
Cc1cccc2sc(N(Cc3cccnc3)C(=O)C3COc4ccccc4O3)nc12 (stereo not drawn) | inactive: -20.5%
COc1ccc(-c2nc(Cn3c(SCc4ccccc4F)nc4cccnc43)c(C)o2)cc1 | inactive: -11.7%
Cc1ccc(CNC(=O)CN2C(=O)C3(SCC(=O)N3c3ccc(F)c(F)c3)c3ccccc32)cc1 (stereo not drawn) | inactive: -19.1%
Cc1cc(NC(=O)c2cnc3c(-c4ccccc4)c(C)nn3c2C)ccc1Br | inactive: -11.6%
Cc1cc(NC(=O)C(C)(C)C)cc(-c2nc3ncccc3o2)c1O | inactive: -6.73%
Cc1cccc(N2CCN(C(=O)CN3C(=O)COc4ccc(S(=O)(=O)N5CCCC5)cc43)CC2C)c1 (stereo not drawn) | inactive: 6.57%
Cc1ccc(C)c(N2CCN(C(=O)CS(=O)(=O)c3cccc4nsnc34)CC2)c1 | inactive: -36.8%
COc1ccc(OCC(=O)NCC(c2ccc(OC)cc2)N2CCOCC2)cc1 (stereo not drawn) | inactive: 2.49%
Cc1ccc(CNC(=O)c2ccccc2NC(=O)c2nsc3ccccc23)cc1 | inactive: -18.3%
COc1cccc(CNCCSc2nnnn2-c2ccccc2)c1OC | inactive: -15.9%
